{"source": "PubChem BioAssay AID1240", "about": "(Sanford-Burnham Center for Chemical Genomics, 2008)", "note": "The whole screen tested about 50,000 compounds, of which about 800 (1.6%) showed an effect of 50% or more. The list shows a part of the results."}
{"target": "Bcl-2-like protein 10 (Homo sapiens) (UniProt Q9HD36)", "sequence (Q9HD36 whole entry, looked up)": "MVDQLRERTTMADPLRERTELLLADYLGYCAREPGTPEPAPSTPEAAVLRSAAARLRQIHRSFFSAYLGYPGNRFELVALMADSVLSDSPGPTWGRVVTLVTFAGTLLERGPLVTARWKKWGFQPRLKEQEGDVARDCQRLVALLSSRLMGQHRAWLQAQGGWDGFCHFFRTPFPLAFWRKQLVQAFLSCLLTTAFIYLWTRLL", "assay": "TR3 peptide-Bcl-B binding displacers, biochemical primary FP assay, phenotype converters (AID 1240);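 further: 0% = Bcl-B with tracer peptide and DMSO and 100% = tracer peptide lacking Bcl-B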", "settings": "GST-Bcl-B / FITC-TR3 peptide fluorescence polarization; stronger effect = higher value; compound at 3.75 mg/L", "units": {"displacement": "%"}}
{"molecule": "CCC1CCCCN1CCCOc1ccc(Br)cc1", "note": "(stereo unspecified)", "displacement": -1.6}
{"molecule": "O=C(Cc1ccc([N+](=O)[O-])cc1)N1N=C(c2cccnc2)CC1(O)C(F)(F)F", "note": "(stereo unspecified)", "displacement": -3.2}
{"molecule": "NC(=O)c1cc(NC(=O)c2cccs2)cc(C(N)=O)c1", "displacement": -4.3}
{"molecule": "Cc1ccc(/C=C2\\SC(=S)N(CC(C)C)C2=O)o1", "displacement": 36.3}
{"molecule": "COc1cc(NC(=O)c2cc(-c3cccs3)nc3ccccc23)c(OC)cc1Cl", "displacement": 55.2}
{"molecule": "CC(=O)N1C(=O)/C(=C2/SC(=Nc3ccc(Br)cc3)NC2=O)c2ccccc21", "displacement": 21.1}
{"molecule": "Cc1cccc(NC(=O)C2CCCN2C(=O)OC(C)(C)C)c1", "note": "(stereo unspecified)", "displacement": 3.5}
{"molecule": "Cc1nc2ccccc2n1CCOc1ccc(F)cc1", "displacement": -3.3}
{"molecule": "O=C(O)CN1C(=O)/C(=C2\\SC(=S)N(C(Cc3ccccc3)C(=O)O)C2=O)c2ccccc21", "note": "(stereo unspecified)", "displacement": 10.2}
{"molecule": "O=C(CSc1nnnn1-c1ccccc1)Nc1ccc([N+](=O)[O-])cc1", "displacement": 0.6}
{"molecule": "Brc1ccc(CN2CCN(C3CCCCC3)CC2)cc1", "displacement": -6.2}
{"molecule": "C=CCc1cccc(/C=N/NC(=O)c2cccc(N3CCCC3=O)c2)c1O", "displacement": -1.8}
{"molecule": "CC(=O)c1c(C)[nH]c(C(=O)OCc2ccccc2)c1C", "displacement": -0.2}
{"molecule": "CC(C)Nc1nc(-c2cccnc2)nc2ccccc12", "displacement": 20.9}
{"molecule": "CC1=C(C(=O)OC2CCCCC2)C(c2ccc(N(C)C)cc2)NC(=O)N1", "note": "(stereo unspecified)", "displacement": 99.1}
{"molecule": "CC(C)COc1ccc(/C=C2\\SC(=S)NC2=O)c2ccccc12", "displacement": 37.1}
{"molecule": "Cc1nc2cc(Nc3nnc(-c4ccccc4)c4ccccc34)ccc2n1C", "displacement": 11.6}
{"molecule": "COCCCNC(=O)CN(c1ccc(OC)c(Cl)c1)S(C)(=O)=O", "displacement": -0.1}
{"molecule": "COC(=O)c1c(C)oc2ccc(OC(=O)c3ccccc3)cc12", "displacement": 11.7}
{"molecule": "O=C(/C=C/c1ccc([N+](=O)[O-])cc1)c1ccc(OC(F)F)cc1", "displacement": 9.7}
{"molecule": "Cc1ccc(S(=O)(=O)/N=C(/CSC(N)=O)Nc2ccccc2)cc1", "displacement": 16.6}
{"molecule": "CCOc1ccc(N(CC(=O)Nc2ccccc2C(F)(F)F)S(C)(=O)=O)cc1", "displacement": -2.1}
{"molecule": "CC(=O)CC(=O)Nc1ccc(Nc2ccccc2)cc1", "displacement": -2.9}
{"molecule": "COc1ccccc1N(C=NC#N)CC#N", "displacement": -6.4}
{"molecule": "CC1=NN(C(=O)c2ccccc2Cl)C(O)(c2ccc(Cl)cc2)C1", "note": "(stereo unspecified)", "displacement": -16.6}
{"molecule": "CCC(C)c1ccc(NC(=O)c2c(-c3c(Cl)cccc3Cl)noc2C)cc1", "note": "(stereo unspecified)", "displacement": 4.5}
{"molecule": "CC1=NNC(=O)C1CC(=O)N/N=C/c1ccccc1O", "note": "(stereo unspecified)", "displacement": -17.4}
{"molecule": "Cn1c(=O)cc2c3c(c(N)ccc31)C(=O)c1ccccc1-2", "displacement": 139}
{"molecule": "O=C(CCCOc1ccccc1)NCc1ccco1", "displacement": -5.7}
{"molecule": "CCOC(=O)C(=CNc1cc(Cl)c(Cl)cc1Cl)C(=O)OCC", "displacement": -3.2}
{"molecule": "c1ccc2c(c1)ncn2CCn1cnc2ccccc21", "displacement": -4.6}
{"molecule": "COc1ccc2nc(SCC(=O)Nc3ccc(Cl)c(Cl)c3)[nH]c2c1", "displacement": -2.7}
{"molecule": "Cc1cc(C)nc(N/N=C/c2cc3c(cc2[N+](=O)[O-])OCO3)n1", "displacement": 7.8}
{"molecule": "O=C(Nc1nc2ccccc2n1CCOc1ccccc1)c1ccc(F)cc1", "displacement": -12.2}
{"molecule": "COc1cccc(Nc2ccccc2C)c1", "displacement": -9.3}
{"molecule": "O=C1NC(=O)N(c2ccc(Br)cc2)C(=O)/C1=C\\c1ccc(-c2ccccc2[N+](=O)[O-])o1", "displacement": 14.5}
{"molecule": "O=[N+]([O-])c1cccc(Cl)c1N1CCN(S(=O)(=O)c2ccccc2)CC1", "displacement": 5.1}
{"molecule": "CCCCSCc1nc2c(c(=O)[nH]1)C1(CCCC1)Cc1ccccc1-2", "displacement": 0.3}
{"molecule": "c1ccc(-c2nc(-c3cccnc3)no2)cc1", "displacement": -3.9}
{"molecule": "Cc1ccccc1OCC(=O)NCc1ccncc1", "displacement": 1.2}
{"molecule": "O=S(=O)(Nc1ccc2oc(-c3cc(Br)ccc3Cl)nc2c1)c1ccccc1", "displacement": 5}
{"molecule": "Clc1ccc(OCCSc2nnnn2-c2ccccc2)cc1", "displacement": 5.2}
{"molecule": "COC(=O)c1ccccc1-c1ccc(/C=C2/SC(=S)N(CC(=O)O)C2=O)o1", "displacement": 5.3}
{"molecule": "N/C(=N\\OS(=O)(=O)c1ccc([N+](=O)[O-])cc1)c1ccncc1", "displacement": -0.6}
{"molecule": "O/N=C\\c1ccc2c(c1)OCCOCCOc1cc(/C=N/O)ccc1OCCOCCO2", "displacement": -1.8}
{"molecule": "O=[N+]([O-])c1cccc(S(=O)(=O)Nc2ccc(O)c(Cl)c2)c1", "displacement": 11.6}
{"molecule": "CC(C)c1ccc(N(CC(=O)NC(C)c2ccccc2)S(=O)(=O)c2ccccc2)cc1", "note": "(stereo unspecified)", "displacement": 5.9}
{"molecule": "CS(=O)(=O)N(Cc1ccc(Cl)cc1)c1ccc(C(=O)Nc2cccc(C(F)(F)F)c2)cc1", "displacement": 10.7}
{"molecule": "Oc1c(C=Nc2cccc(Br)c2)sc2ccccc12", "displacement": -3.9}
{"molecule": "COc1ccc(C2CC(=O)C3=C(C2)Nc2ccccc2NC3c2cccc(Br)c2)cc1", "note": "(stereo unspecified)", "displacement": 4.5}
{"molecule": "CCCCOC(=O)c1cccc(NC(=O)c2c(-c3ccccc3Cl)noc2C)c1", "displacement": -4.6}
{"molecule": "O=C(CCCN1C(=O)c2ccccc2C1=O)N(Cc1ccccc1)Cc1ccccc1", "displacement": 6.1}
{"molecule": "COc1ccc(-c2nc(=NC(=O)c3ccco3)sn2-c2ccccc2)cc1", "displacement": 3.4}
{"molecule": "COc1ccc(CN2CCN(Cc3ccccn3)CC2)c(OC)c1", "displacement": -17.1}
{"molecule": "O=C(O)CN1C(=O)/C(=C/c2ccc(-c3ccccc3[N+](=O)[O-])o2)SC1=S", "displacement": 23}
{"molecule": "COc1ccc(C(=O)N2N=C(C(F)(F)F)CC2(O)c2ccccc2)cc1", "note": "(stereo unspecified)", "displacement": 15.7}
{"molecule": "O=C(/C=C/c1ccccc1)Nc1ccc(O)c(-c2nc3ccccc3o2)c1", "displacement": -3.2}
{"molecule": "O=C(O)C1C2CCC(C2)C1C(=O)NCC1CCCO1", "note": "(stereo unspecified)", "displacement": -11}
{"molecule": "COc1ccc(CC(=O)NC2CC(C)(C)NC(C)(C)C2)cc1OC", "displacement": -11.5}
{"molecule": "COc1ccccc1C(=O)N1CCN(S(=O)(=O)c2ccccc2)CC1", "displacement": -3.6}
{"molecule": "Cc1ccc2nc(/N=C(/N)NC(=O)Cc3ccccc3)nc(C)c2c1", "displacement": 1.7}
{"molecule": "CN1C(=O)C(=Cc2ccc(-c3cc(Cl)ccc3Cl)o2)C(=O)N(C)C1=O", "displacement": 3.8}
{"molecule": "COc1ccc(/C=C/C(=O)NC(=S)Nc2ccc(I)cc2)cc1OC", "displacement": 10}
{"molecule": "COC(=O)c1sccc1NS(=O)(=O)c1cc(Cl)ccc1Cl", "displacement": -9.2}
{"molecule": "Cc1ccsc1C=Nc1ccc(Br)cn1", "displacement": 4.3}
{"molecule": "COc1ccc(/C=C2\\C=C(c3ccc(Cl)cc3)OC2=O)cc1OC", "displacement": 147}
{"molecule": "CC(=O)Nc1ccc(C(=O)Nc2ccc(Cl)cn2)cc1", "displacement": 20}
{"molecule": "Cn1/c(=N/N=C/c2cc(Br)ccc2O)sc2ccccc21", "displacement": -9.5}
{"molecule": "COc1ccc(C(=O)Nc2ccc(-c3nc4ccccc4c(=O)o3)cc2)cc1", "displacement": -2.3}
{"molecule": "O=[N+]([O-])c1ccc(N=Cc2c[nH]c3ccccc23)cc1", "displacement": 4.3}
{"molecule": "CCOC(=O)C1=C(C)N=c2s/c(=C\\c3ccccn3)c(=O)n2C1c1ccc(Cl)cc1", "note": "(stereo unspecified)", "displacement": 10.7}
{"molecule": "COC(=O)COc1ccc(/C=C2\\C(=O)NC(=O)N(c3cc(C)cc(C)c3)C2=O)cc1OC", "displacement": 3.4}
{"molecule": "CCOC(=O)c1c(NC(=S)Nc2ccccc2)sc2c1CC(C)(CC)OC2", "note": "(stereo unspecified)", "displacement": -4.9}
{"molecule": "COc1ccccc1-n1sc2c(c1=S)-c1ccc(C)cc1NC2(C)C", "displacement": 1.1}
{"molecule": "CC1=C(C(=O)OC(C)C)C(c2cccc(Cl)c2)C2=C(CCCC2=O)N1", "note": "(stereo unspecified)", "displacement": 3.2}
{"molecule": "O=C(Cc1ccc(F)cc1)Nc1ccccc1Br", "displacement": 13.2}
{"molecule": "CCOc1ccccc1N(CC(=O)Nc1ccccc1CC)S(=O)(=O)c1ccccc1", "displacement": -5.8}
{"molecule": "O=c1c2c(Br)c3c(=O)n(CCO)c(=O)c3c(Br)c2c(=O)n1CCO", "displacement": 35.2}
{"molecule": "CCOC(=O)c1c(NC(=S)NC(=O)Cc2ccccc2)sc(C)c1C", "displacement": 0.1}
{"molecule": "Cc1ccccc1-c1noc(-c2ccc(C(C)(C)C)cc2)n1", "displacement": -6.5}
{"molecule": "COc1ccc(S(=O)(=O)NC2CCCCCC2)cc1", "displacement": -5.3}
{"molecule": "COc1cccc(NC2=C(Cl)C(=O)N(c3cccc(C)c3)C2=O)c1", "displacement": 0.6}
{"molecule": "Cc1nc(-c2ccc([N+](=O)[O-])cc2)nc2[nH]ccc(=O)c12", "displacement": -17.2}
{"molecule": "Cc1ccc(C(=O)NCc2ccccc2)cc1S(=O)(=O)N1CCCCC1", "displacement": -16.8}
{"molecule": "CCCc1c(C)nc2ccc(C(=O)O)cc2c1SCC(=O)O", "displacement": -2.3}
{"molecule": "Cc1nc2cc(Nc3nnc(-c4ccc(Cl)cc4)c4ccccc34)ccc2n1C", "displacement": 10.8}
{"molecule": "NC(=O)c1cccc(N=Cc2ccc(Br)s2)c1", "displacement": -9.1}
{"molecule": "COc1ccc(/C=C2\\SC(=S)N(c3ccc(C)cc3C)C2=O)cc1OC", "displacement": 6.6}
{"molecule": "CC(C)CN1C(=O)c2ccc(C(=O)Nc3cc(Cl)ccc3C(=O)O)cc2C1=O", "displacement": 6.8}
{"molecule": "Cc1ccccc1OCCSc1ncnc2nc[nH]c12", "displacement": 0.5}
{"molecule": "COc1cc(Br)c(Br)c(/C=N\\NC(=O)c2ccccc2Cl)c1O", "displacement": 5.8}
{"molecule": "O=C(O)c1ccc(N/N=C/c2ccc3c(c2)OCO3)cc1", "displacement": -9.2}
{"molecule": "O=C(O)CN=Cc1c(O)[nH]c2ccccc12", "displacement": 2}
{"molecule": "COc1cc(C2Nc3ccccc3NC3=C2C(=O)CC(c2ccc(Cl)cc2)C3)cc(OC)c1OC", "note": "(stereo unspecified)", "displacement": -3.4}
{"molecule": "COc1ccccc1CNC(=O)COc1ccc(C)cc1C", "displacement": -2.3}
{"molecule": "COc1cc(CN2CCN(C(=O)c3cccs3)CC2)cc(OC)c1OC", "displacement": -18.6}
{"molecule": "CCc1ccc(NC(=S)NC(=O)c2ccc(Cl)cc2)cc1", "displacement": 2.1}
{"molecule": "Cc1ccc(-c2nc3cc(Cl)cc(Cl)c3o2)cc1NC(=O)c1ccc(Br)o1", "displacement": -7.6}
{"molecule": "Cc1onc(-c2c(Cl)cccc2Cl)c1C(=O)NC1CCCCCCC1", "displacement": -9.1}
{"molecule": "CC(C)=CC(=O)CC(O)(c1ccccc1)C(F)(F)F", "note": "(stereo unspecified)", "displacement": -6.1}
{"molecule": "O=C(N/N=C\\c1ccc[nH]1)c1cccc2c3c([nH]c12)CCCC3", "displacement": 9.4}
{"molecule": "O=C1c2ccc(Oc3ccc4c(c3)C(=O)N(Cc3cccnc3)C4=O)cc2C(=O)N1Cc1cccnc1", "displacement": -7}
{"molecule": "Cc1ccc(OCC(=O)NCc2cccnc2)c(C)c1", "displacement": -0.3}
{"molecule": "O=C(NNC(=O)c1cc2ccccc2oc1=O)c1ccccc1", "displacement": 1.8}
{"molecule": "O=c1oc(-c2cccnc2)nc2ccccc12", "displacement": 7.2}
{"molecule": "CCOc1ccc(NC(=O)c2c(NC(C)=O)sc3c2CCCC3)cc1", "displacement": 12.1}
{"molecule": "CCOc1ccccc1C(=O)Nc1ccc(F)c(Cl)c1", "displacement": 8.1}
{"molecule": "CCCCOc1ccc(C(=O)NN)cc1", "displacement": -5.4}
{"molecule": "CC(C)CC(NC(=O)c1ccccc1)C(=O)OCC(=O)N1c2ccccc2Sc2ccccc21", "note": "(stereo unspecified)", "displacement": 9.1}
{"molecule": "CCN(CC)c1ccc(/C=C2\\C(=O)NC(=O)N(Cc3ccccc3)C2=O)c(OC)c1", "displacement": 14.6}
{"molecule": "Cc1ccc(-n2nc(C)c3c(C)cc(=O)oc32)cc1Cl", "displacement": 35.1}
